Experimental data published in PubChem BioAssay.
Inconclusive results, whose numbers are uncertain, are shown with a selection of clear calls. The source made the active and inactive calls.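 The calls were made as follows, unless noted: active = viability at or below 10% of carrier control in both of two separate runs; inconclusive = viability at or below 10% in only one of the two runs; inactive = the rest.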

Assay: reduced viability of SK-BR-3 breast cancer cells – cell-based, 24 h, human, pilot screen (AID 572);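 also: compound exposure lasted between 18 and 24 h rather than exactly 24 h; 100% = carrier-treated control wells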
Details: SK-BR-3 viability, CellTiter-Glo luminescence, at 10 µM, active compounds read low

Q: With `Cc1cccc2cc(C#N)c(SCCN3CCCCC3)nc12` as the compound, how does the viability read?
A: Its viability is inconclusive: 45%.

Q: With `CNCCCN1c2ccccc2CCc2ccccc21` as the compound, how does the viability read?
A: The viability was inconclusive: 61.5%.

Q: Which viability does the source give for `COc1ccc(-n2ncc3c(NCc4ccccn4)ncnc32)cc1` here?
A: The viability was inactive: 98.5%.

Q: For `CC(NCCC(c1ccccc1)c1ccccc1)c1ccccc1` (configuration not stated), which viability is on record?
A: Its viability is inconclusive: 36%.

Q: Which viability does the source give for `COc1cccc(-c2cc(C(=O)Nc3cc(C)n(Cc4ccc(Cl)cc4)n3)no2)c1` here?
A: The viability was inactive: 57.5%.

Q: With `CCOCCCn1c(=NC(C)=O)c(C(=O)OCC)cc2c(=O)n3ccccc3nc21` as the compound, how does the viability read?
A: Its viability is inactive: 82%.

Q: With `CC(C)(C)c1ccc(C(O)CCCN2CCC(C(O)(c3ccccc3)c3ccccc3)CC2)cc1` (configuration not stated) as the compound, how does the viability read?
A: Its viability is inactive: 91%.

Q: Which viability does the source give for `Cc1nnc(NCc2n[nH]c(=O)c3ccccc23)c2ccccc12` here?
A: The viability was inactive: 72%.

Q: For `CC(C)Cc1nc2oc3c(N4CCN(CCO)CC4)ncnc3c2c2c1CCCC2`, which viability is on record?
A: The viability was inconclusive: 50.5%.

Q: For `CCN(CC)C(=O)CSc1nnc([C@@H](N)Cc2ccccc2)o1`, which viability is on record?
A: The viability was inactive: 82%.

Q: With `COc1cccc2c1C(=O)c1c(O)c3c(c(O)c1C2=O)C[C@@](O)(C(=O)CO)C[C@@H]3O[C@H]1C[C@H](N)[C@H](O)[C@H](C)O1` as the compound, how does the viability read?
A: Its viability is inconclusive: 18%.

Q: Which viability does the source give for `CCn1c(=N)n(CC(=O)C23CC4CC(CC(C4)C2)C3)c2ccccc21` here?
A: Its viability is inconclusive: 42.5%.

Q: For `CC[C@H]1CN2CCc3cc(OC)c(OC)cc3[C@@H]2C[C@@H]1C[C@H]1NCCc2cc(OC)c(OC)cc21`, which viability is on record?
A: Its viability is inconclusive: 12%.

Q: Which viability does the source give for `COc1ccc(OC)c(S(=O)(=O)Nc2ccc(O)c3ccccc23)c1` here?
A: The viability was active: 6%.

Q: With `C1CCC(C(CC2CCCCN2)C2CCCCC2)CC1` (configuration not stated) as the compound, how does the viability read?
A: The viability was active: 2%.

Q: For `CCCn1nc(NC(=O)c2cccs2)c2cc3cc(OC)ccc3nc21`, which viability is on record?
A: Its viability is inactive: 102%.

Q: Which viability does the source give for `CCn1c(=O)cc(SCC(=O)Nc2cccnc2)c2ccccc21` here?
A: Its viability is inactive: 91.5%.

Q: For `O=S1(=O)C=C(Sc2nnc(-c3ccccc3)o2)c2ccccc21`, which viability is on record?
A: The viability was inconclusive: 1%.

Q: Which viability does the source give for `COc1ccc(C2C(C(=O)Nc3cccnc3)=C(C)Nc3nc(-c4cccs4)nn32)cc1OC` (configuration not stated) here?
A: The viability was inconclusive: 59%.

Q: Which viability does the source give for `O=c1[nH]c2ccccc2n1CCCN1CCN(C(c2ccccc2)c2ccccc2)CC1` here?
A: Its viability is inconclusive: 62%.

Q: Which viability does the source give for `Brc1ccc2ncnc(Nc3ccc(N4CCOCC4)cc3)c2c1` here?
A: The viability was inactive: 86%.

Q: With `O=C(c1cc(-c2cccc(O)c2)on1)N1CCN(C(c2ccccc2)c2ccccc2)CC1` as the compound, how does the viability read?
A: The viability was inconclusive: 74%.

Q: With `COc1cc(OC)cc(C(=O)NCCN2CCOCC2)c1` as the compound, how does the viability read?
A: Its viability is inactive: 105%.

Q: With `O=c1/c(=C/c2ccco2)sc2nc(-c3ccccc3Br)nn12` as the compound, how does the viability read?
A: The viability was inactive: 97%.

Q: With `Nc1nc(Cl)nc2c1ncn2[C@@H]1O[C@H](CO)[C@@H](O)[C@H]1O` as the compound, how does the viability read?
A: Its viability is inconclusive: 37%.

Q: With `CN1CCCN(C(c2ccccc2)c2ccc(Cl)cc2)CC1` (configuration not stated) as the compound, how does the viability read?
A: Its viability is inconclusive: 39%.

Q: Which viability does the source give for `CC(=O)OCC(=O)[C@@]1(OC(C)=O)[C@@H](C)C[C@H]2[C@@H]3C[C@H](F)C4=CC(=O)C=C[C@]4(C)[C@@]3(F)[C@@H](O)C[C@@]21C` here?
A: The viability was inactive: 119%.

Q: For `CC1CCc2c(sc(N)c2C(N)=O)C1` (configuration not stated), which viability is on record?
A: The viability was inactive: 95.5%.

Q: With `O=S1(=O)C=C(Sc2nc3ccccc3s2)c2ccccc21` as the compound, how does the viability read?
A: Its viability is inconclusive: 15%.

Q: For `COc1cccc2c1C(=O)c1c(O)c3c(c(O)c1C2=O)C[C@@](O)(C(C)=O)C[C@@H]3O[C@H]1C[C@H](N)[C@H](O)[C@H](C)O1`, which viability is on record?
A: The viability was inconclusive: 5%.

Q: With `Cc1nnc(SCC(=O)Nc2sc3c(c2C#N)CCCC3)[nH]c1=O` as the compound, how does the viability read?
A: The viability was inactive: 95.5%.

Q: For `C=C(C)COc1ccc(-c2n[nH]c(C)c2-c2ccccc2)c(O)c1`, which viability is on record?
A: Its viability is inconclusive: 56%.

Q: Which viability does the source give for `CSc1ccc2c(c1)N(CCC1CCCCN1C)c1ccccc1S2` (configuration not stated) here?
A: The viability was inconclusive: 49%.

Q: For `CCCCCCCCNC(C)C(O)c1ccc(SC(C)C)cc1` (configuration not stated), which viability is on record?
A: Its viability is inconclusive: 41%.

Q: For `CCn1nnc(NC(=O)c2ccc(-c3ccc(Cl)cc3)o2)n1`, which viability is on record?
A: The viability was inactive: 87.5%.

Q: For `COc1ccc(-c2nc(C(N)=O)c3[nH]c(=O)n(-c4cccc(Cl)c4)c3n2)cc1OC`, which viability is on record?
A: Its viability is inconclusive: 27%.

Q: With `CCCCCCn1c(CN2CCN(Cc3ccccc3)CC2)nc2c1c(=O)n(C)c(=O)n2C` as the compound, how does the viability read?
A: The viability was inconclusive: 46%.

Q: Which viability does the source give for `OCCN1CCN(CCCN2c3ccccc3Sc3ccc(C(F)(F)F)cc32)CC1` here?
A: The viability was active: 3%.

Q: Which viability does the source give for `COc1ccc(Cl)cc1Nc1nc(NCCO)nc(N2CCCC2)n1` here?
A: Its viability is inconclusive: 62%.

Assay: HUVEC growth inhibition – cell-based, human, primary screen (AID 575;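 active = viability at or below 30% in both replicate assays; inconclusive = viability at or below 30% in just one of the two assays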;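 also: 100% = median of untreated cell wells with 0.1% DMSO on each plate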)
Details: HUVEC proliferation, CellTiter-Glo luminescence, 72 h; at 10 µM; active compounds read low
Method in brief: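 Test system: primary human umbilical vein endothelial cells. Quantity: 1250 cells/well. Compound: single 10 µM dose, 0.1% DMSO, from 5x medium stock. Timing: 72 h treatment at 37 °C. Detection: ATP-based CellTiter-Glo luminescent read. Benchmarks: vehicle and MePR control wells. Format: 384-well plates coated with collagen.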

Q: For `COc1ccc(-n2ncc3c(NCc4ccccn4)ncnc32)cc1`, which viability is on record?
A: The viability was inactive: 102%.

Q: With `COc1cccc(-c2cc(C(=O)Nc3cc(C)n(Cc4ccc(Cl)cc4)n3)no2)c1` as the compound, how does the viability read?
A: The viability was inconclusive: 37.9%.

Q: With `CC(C)(C)c1ccc(C(O)CCCN2CCC(C(O)(c3ccccc3)c3ccccc3)CC2)cc1` (configuration not stated) as the compound, how does the viability read?
A: Its viability is active: 1.7%.

Q: With `Cc1nnc(NCc2n[nH]c(=O)c3ccccc23)c2ccccc12` as the compound, how does the viability read?
A: The viability was inconclusive: 58.4%.

Q: For `COc1cccc2c1C(=O)c1c(O)c3c(c(O)c1C2=O)C[C@@](O)(C(=O)CO)C[C@@H]3O[C@H]1C[C@H](N)[C@H](O)[C@H](C)O1`, which viability is on record?
A: The viability was active: 22.1%.

Q: Which viability does the source give for `CCn1c(=N)n(CC(=O)C23CC4CC(CC(C4)C2)C3)c2ccccc21` here?
A: Its viability is active: 4.87%.

Q: With `CC[C@H]1CN2CCc3cc(OC)c(OC)cc3[C@@H]2C[C@@H]1C[C@H]1NCCc2cc(OC)c(OC)cc21` as the compound, how does the viability read?
A: The viability was active: 11%.

Q: For `COc1ccc(OC)c(S(=O)(=O)Nc2ccc(O)c3ccccc23)c1`, which viability is on record?
A: Its viability is active: 3.38%.

Q: For `C1CCC(C(CC2CCCCN2)C2CCCCC2)CC1` (configuration not stated), which viability is on record?
A: Its viability is active: 2.58%.

Q: With `Brc1ccc2ncnc(Nc3ccc(N4CCOCC4)cc3)c2c1` as the compound, how does the viability read?
A: Its viability is inconclusive: 27.7%.

Q: With `O=C(c1cc(-c2cccc(O)c2)on1)N1CCN(C(c2ccccc2)c2ccccc2)CC1` as the compound, how does the viability read?
A: The viability was inactive: 98.8%.

Q: With `Nc1nc(Cl)nc2c1ncn2[C@@H]1O[C@H](CO)[C@@H](O)[C@H]1O` as the compound, how does the viability read?
A: The viability was active: 3.95%.

Q: Which viability does the source give for `O=S1(=O)C=C(Sc2nc3ccccc3s2)c2ccccc21` here?
A: The viability was active: 9.16%.

Q: Which viability does the source give for `COc1cccc2c1C(=O)c1c(O)c3c(c(O)c1C2=O)C[C@@](O)(C(C)=O)C[C@@H]3O[C@H]1C[C@H](N)[C@H](O)[C@H](C)O1` here?
A: Its viability is active: 5.46%.

Q: For `CSc1ccc2c(c1)N(CCC1CCCCN1C)c1ccccc1S2` (configuration not stated), which viability is on record?
A: The viability was active: 2.44%.

Q: For `CCCCCCCCNC(C)C(O)c1ccc(SC(C)C)cc1` (configuration not stated), which viability is on record?
A: The viability was active: 2.21%.

Q: Which viability does the source give for `COc1ccc(-c2nc(C(N)=O)c3[nH]c(=O)n(-c4cccc(Cl)c4)c3n2)cc1OC` here?
A: The viability was active: 3.29%.

Q: Which viability does the source give for `OCCN1CCN(CCCN2c3ccccc3Sc3ccc(C(F)(F)F)cc32)CC1` here?
A: The viability was active: 2.4%.
